From the supplement of paper PMC8728848
Some of the results follow.

How the values were obtained:
Experiment in all cases: glycan array binding signal (z-score within array); higher = stronger binding
Settings in all cases: glycan notation: IUPAC condensed, linker removed
[1] = molecular target: Man(a1-2)Man(a1-3)[Man(a1-3)[Man(a1-6)]Man(a1-6)]Man(b1-4)GlcNAc(b1-4)GlcNAc
Outline: (§1)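 Negative Z-scores can be read as non-binding. The Z-score is calculated within each array and then averaged across arrays of one protein sequence at different concentrations or buffers and across linkers. Arrays, 3228 in all, were curated from the Consortium for Functional Glycomics database and kept only where the protein sequence was available.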

[2] = molecular target: Man(a1-2)Man(a1-3)[Man(a1-6)]Man(a1-6)[Man(a1-2)Man(a1-3)]Man(b1-4)GlcNAc(b1-4)GlcNAc
Outline: as §1

[3] = molecular target: Man(a1-2)Man(a1-6)[Man(a1-3)]Man(a1-6)[Man(a1-2)Man(a1-2)Man(a1-3)]Man
Outline: as §1

[4] = molecular target: Man(a1-2)Man(a1-6)[Man(a1-3)]Man(a1-6)[Man(a1-2)Man(a1-2)Man(a1-3)]Man(b1-4)GlcNAc(b1-4)GlcNAc
Outline: as §1

Man(a1-3)[Man(a1-6)]Man = molecular target: Man(a1-3)[Man(a1-6)]Man
Outline: as §1

[5] = molecular target: Man(a1-3)[Man(a1-6)]Man(a1-6)[Man(a1-2)Man(a1-3)]Man(b1-4)GlcNAc(b1-4)GlcNAc
Outline: as §1

[6] = molecular target: Man(a1-3)[Man(a1-6)]Man(a1-6)[Man(a1-3)]Man
Outline: as §1

[7] = molecular target: Man(a1-3)[Man(a1-6)]Man(a1-6)[Man(a1-3)]Man(b1-4)GlcNAc(b1-4)GlcNAc
Outline: as §1

[8] = molecular target: Man(a1-3)[Man(a1-6)]Man(b1-4)GlcNAc(b1-4)GlcNAc
Outline: as §1

[9] = molecular target: Man(a1-3)[Man(a1-6)]Man(b1-4)GlcNAc(b1-4)[Fuc(a1-6)]GlcNAc
Outline: as §1

Man(a1-6)Man = molecular target: Man(a1-6)Man
Outline: as §1

Man(b1-4)GlcNAc = molecular target: Man(b1-4)GlcNAc
Outline: as §1

MurNAc(b1-4)GlcNAc = molecular target: MurNAc(b1-4)GlcNAc
Outline: as §1

Neu5Ac(a2-3)Gal = molecular target: Neu5Ac(a2-3)Gal
Outline: as §1

[10] = molecular target: Neu5Ac(a2-3)Gal(b1-3)GalNAc
Outline: as §1

[11] = molecular target: Neu5Ac(a2-3)Gal(b1-3)GalNAc(b1-3)Gal(a1-4)Gal(b1-4)Glc
Outline: as §1

[12] = molecular target: Neu5Ac(a2-3)Gal(b1-3)GalNAc(b1-4)[Neu5Ac(a2-3)]Gal(b1-4)Glc
Outline: as §1

[13] = molecular target: Neu5Ac(a2-3)Gal(b1-3)GalNAc(b1-4)[Neu5Ac(a2-8)Neu5Ac(a2-3)]Gal(b1-4)Glc
Outline: as §1

[14] = molecular target: Neu5Ac(a2-3)Gal(b1-3)GalNAc6S
Outline: as §1

[15] = molecular target: Neu5Ac(a2-3)Gal(b1-3)GlcNAc
Outline: as §1

[16] = molecular target: Neu5Ac(a2-3)Gal(b1-3)GlcNAc(b1-2)Man
Outline: as §1

[17] = molecular target: Neu5Ac(a2-3)Gal(b1-3)GlcNAc(b1-2)Man(a1-3)[GlcNAc(b1-4)][Neu5Ac(a2-3)Gal(b1-3)GlcNAc(b1-2)Man(a1-6)]Man(b1-4)GlcNAc(b1-4)GlcNAc
Outline: as §1

[18] = molecular target: Neu5Ac(a2-3)Gal(b1-3)GlcNAc(b1-2)Man(a1-3)[Neu5Ac(a2-3)Gal(b1-3)GlcNAc(b1-2)Man(a1-6)]Man(b1-4)GlcNAc(b1-4)GlcNAc
Outline: as §1

[19] = molecular target: Neu5Ac(a2-3)Gal(b1-3)GlcNAc(b1-2)[Neu5Ac(a2-3)Gal(b1-3)GlcNAc(b1-4)]Man(a1-6)[Neu5Ac(a2-3)Gal(b1-3)GlcNAc(b1-2)Man(a1-3)]Man(b1-4)GlcNAc(b1-4)GlcNAc
Outline: as §1

[20] = molecular target: Neu5Ac(a2-3)Gal(b1-3)GlcNAc(b1-3)Gal(b1-3)GlcNAc
Outline: as §1

[21] = molecular target: Neu5Ac(a2-3)Gal(b1-3)GlcNAc(b1-3)Gal(b1-4)GlcNAc
Outline: as §1

[22] = molecular target: Neu5Ac(a2-3)Gal(b1-3)GlcNAc(b1-3)GalNAc
Outline: as §1

[23] = molecular target: Neu5Ac(a2-3)Gal(b1-3)GlcNAc(b1-4)Gal(b1-4)Glc
Outline: as §1

[24] = molecular target: Neu5Ac(a2-3)Gal(b1-3)GlcNAc(b1-6)GalNAc
Outline: as §1

[25] = molecular target: Neu5Ac(a2-3)Gal(b1-3)GlcNAc6S
Outline: as §1

[26] = molecular target: Neu5Ac(a2-3)Gal(b1-3)[Fuc(a1-4)]GlcNAc
Outline: as §1

[27] = molecular target: Neu5Ac(a2-3)Gal(b1-3)[Fuc(a1-4)]GlcNAc(b1-3)Gal(b1-3)[Fuc(a1-4)]GlcNAc
Outline: as §1

[28] = molecular target: Neu5Ac(a2-3)Gal(b1-3)[Fuc(a1-4)]GlcNAc(b1-3)Gal(b1-4)[Fuc(a1-3)]GlcNAc
Outline: as §1

[29] = molecular target: Neu5Ac(a2-3)Gal(b1-3)[GlcNAc(b1-6)]GalNAc
Outline: as §1

[30] = molecular target: Neu5Ac(a2-3)Gal(b1-3)[Neu5Ac(a2-3)Gal(b1-4)]GlcNAc
Outline: as §1

[31] = molecular target: Neu5Ac(a2-3)Gal(b1-3)[Neu5Ac(a2-6)]GalNAc
Outline: as §1

[32] = molecular target: Neu5Ac(a2-3)Gal(b1-3)[Neu5Ac(a2-6)]GlcNAc(b1-3)[Fuc(a1-3)[Gal(b1-4)]GlcNAc(b1-6)]Gal(b1-4)Glc
Outline: as §1

B1: Epa12 (Candida glabrata) (protein)
chain: MGSSHHHHHHSSGLVPRGSHMLEPDNSLQIFDSFLSNPSKYPLGCSPKITNPKKGLSMELYSYPYRKKGSHPCWDPAYLDPNFPRVGYKKNKLIARVDGVSGDINFNFHPKRQCTPIADYLPPNFNYNEPITTTNFTMLLYGYFKPKVTGLHTFDISADDLLFMNFGAGNAFDCCRRDSTADTFGNYVAWAIWGRRIVRNKLTVRLDKGIYYPLRLFFNNRDYYGQMRLTFKTEHGSERITDFSDYFFSVDDTSEGCPGLITYESECADVKSSTVLETDYITIQAEKE
glycan array binding signal (z-score) [1]: -0.282
glycan array binding signal (z-score) [2]: -0.345
glycan array binding signal (z-score) [3]: -0.548
glycan array binding signal (z-score) [4]: -0.265
glycan array binding signal (z-score) (Man(a1-3)[Man(a1-6)]Man): -0.26
glycan array binding signal (z-score) [5]: -0.182
glycan array binding signal (z-score) [6]: -0.309
glycan array binding signal (z-score) [7]: -0.222
glycan array binding signal (z-score) [8]: -0.31
glycan array binding signal (z-score) [9]: -0.335
glycan array binding signal (z-score) (Man(a1-6)Man): -0.189
glycan array binding signal (z-score) (Man(b1-4)GlcNAc): -0.301
glycan array binding signal (z-score) (MurNAc(b1-4)GlcNAc): -0.373
glycan array binding signal (z-score) (Neu5Ac(a2-3)Gal): -0.341
glycan array binding signal (z-score) [10]: -0.136
glycan array binding signal (z-score) [11]: -0.269
glycan array binding signal (z-score) [12]: -0.309
glycan array binding signal (z-score) [13]: -0.41
glycan array binding signal (z-score) [14]: 0.197
glycan array binding signal (z-score) [15]: -0.303
glycan array binding signal (z-score) [16]: -0.336
glycan array binding signal (z-score) [17]: -0.138
glycan array binding signal (z-score) [18]: -0.234
glycan array binding signal (z-score) [19]: -0.349
glycan array binding signal (z-score) [20]: -0.43
glycan array binding signal (z-score) [21]: -0.332
glycan array binding signal (z-score) [22]: -0.23
glycan array binding signal (z-score) [23]: -0.295
glycan array binding signal (z-score) [24]: -0.311
glycan array binding signal (z-score) [25]: -0.283
glycan array binding signal (z-score) [26]: -0.368
glycan array binding signal (z-score) [27]: -0.342
glycan array binding signal (z-score) [28]: -0.294
glycan array binding signal (z-score) [29]: -0.356
glycan array binding signal (z-score) [30]: -0.255
glycan array binding signal (z-score) [31]: -0.335
glycan array binding signal (z-score) [32]: -0.203
